# Data reported in PMC4336329 (PLoS ONE, 2015).
# In all, about 310,000 compounds went through this assay and about 14,000 (4.5%) showed an effect of 50% or more. The effect is printed as a negative number. This is one part of the list.
# Target: human ether-à-go-go-related gene (hERG) potassium channel (human, UniProt Q12809)
# Assay: primary screen, population patch clamp on CHO cells stably expressing hERG
# 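Note: peak tail current of the secondary pulse compared with the same well before compound.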
# human ether-à-go-go-related gene (hERG) potassium channel, sequence (Q12809 whole entry, looked up): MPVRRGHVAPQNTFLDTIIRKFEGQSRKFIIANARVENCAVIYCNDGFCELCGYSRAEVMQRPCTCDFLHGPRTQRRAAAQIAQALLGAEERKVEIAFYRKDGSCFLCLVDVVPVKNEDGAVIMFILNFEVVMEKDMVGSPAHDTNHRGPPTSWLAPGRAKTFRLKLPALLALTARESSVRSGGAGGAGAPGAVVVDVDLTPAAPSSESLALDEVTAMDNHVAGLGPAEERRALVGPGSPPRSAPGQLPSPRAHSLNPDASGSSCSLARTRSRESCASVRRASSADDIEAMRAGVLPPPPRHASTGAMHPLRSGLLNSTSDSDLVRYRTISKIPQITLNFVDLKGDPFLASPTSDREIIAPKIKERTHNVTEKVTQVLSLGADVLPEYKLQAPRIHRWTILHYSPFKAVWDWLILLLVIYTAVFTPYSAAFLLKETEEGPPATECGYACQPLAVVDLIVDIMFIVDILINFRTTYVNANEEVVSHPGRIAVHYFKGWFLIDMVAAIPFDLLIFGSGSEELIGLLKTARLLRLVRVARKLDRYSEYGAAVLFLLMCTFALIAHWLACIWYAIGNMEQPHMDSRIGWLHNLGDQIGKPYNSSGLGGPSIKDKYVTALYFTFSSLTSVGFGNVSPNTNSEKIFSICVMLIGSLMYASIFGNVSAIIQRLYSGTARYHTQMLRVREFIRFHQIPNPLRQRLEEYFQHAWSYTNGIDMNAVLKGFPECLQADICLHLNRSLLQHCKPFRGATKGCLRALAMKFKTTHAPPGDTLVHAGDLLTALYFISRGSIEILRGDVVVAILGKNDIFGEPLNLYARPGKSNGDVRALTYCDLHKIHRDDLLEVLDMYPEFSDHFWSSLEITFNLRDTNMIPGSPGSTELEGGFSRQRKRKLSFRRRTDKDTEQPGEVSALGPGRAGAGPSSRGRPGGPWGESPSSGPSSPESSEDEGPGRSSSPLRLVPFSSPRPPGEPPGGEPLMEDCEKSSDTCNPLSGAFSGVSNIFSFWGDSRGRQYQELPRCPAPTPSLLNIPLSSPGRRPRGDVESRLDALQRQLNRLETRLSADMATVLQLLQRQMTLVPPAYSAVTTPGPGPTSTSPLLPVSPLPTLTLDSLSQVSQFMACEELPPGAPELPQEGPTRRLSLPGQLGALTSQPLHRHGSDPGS
row,SMILES,"hERG current change (%, negative = inhibition) at 10uM [%]"
1,CC(=O)N1CCN2C(=O)C1CCCC(=O)c1cc(C)ccc12 (stereo not drawn),9.36
2,CCc1ccc(NS(=O)(=O)c2cccc3nonc23)cc1,1.41
3,CCOC(=O)c1ccc2c(c1)nc(SCC(=O)c1cc3ccccc3o1)n2CC,17.4
4,COc1ccc(C(CNC(=O)CSc2ccc(Br)cc2C)N2CCOCC2)cc1 (stereo not drawn),-26
5,CCOC(=O)Cc1cnc(NC(=O)CSc2nc(C)c(CC)c(=O)[nH]2)s1,11.9
6,C(=N\Nc1nc(N2CCCC2)nc(N2CCCC2)n1)/c1cccnc1,6.33
7,Cl.O=C(Cc1ccccc1)OC(COCc1ccccc1)CN1CCOCC1 (stereo not drawn),-7.21
8,COC(=O)c1ccc(NCC(=O)N2CCCCCC2)cc1,-8.63
9,CC(=O)Nc1ccc(N(CC(O)Cn2c3ccccc3c3ccccc32)S(=O)(=O)c2ccc(C)cc2)cc1 (stereo not drawn),-8.96
10,O=C(OCC(=O)N1CCCC1)c1ccco1,4.85
11,CCOC(=O)C(Cc1ccccc1)c1ccnc2nc(N)nn12 (stereo not drawn),-7.02
12,COc1cc(CN2CCN(C(=O)c3cccc4ccccc34)CC2)cc(OC)c1OC.O=C(O)C(=O)O,4.24
13,O=C(Nc1ccc2c(c1)OCO2)c1n[nH]c(=O)c2ccccc12,4.23
14,CC1CCc2nc(NC(=O)C3COc4ccccc4O3)sc2C1 (stereo not drawn),-6.74
15,Cc1cccc(OCC(=O)Nc2ccc3c(c2)nc(CCN2CCN(c4ccccn4)CC2)n3C)c1,-79.5
16,CCOC(=O)Cc1c(C)nc2c(-c3ccc(Cl)cc3)c(C)[nH]n2c1=O,20.6
17,O=C(NC1CCc2ccccc21)C1CCN(S(=O)(=O)c2ccc(Cl)cc2)CC1 (stereo not drawn),3.03
18,O=C(CNC(=O)c1ccc2ccccc2c1)NCc1ccccc1F,0.302
19,O=C(NNC(=S)NCCc1ccccc1)c1ccc(Br)s1,10
20,CC(NC(=O)NC1CCCCC1)c1ccccc1 (stereo not drawn),-3.12
21,CC(C)N(Cc1ccccc1)C(=S)Nc1ccc(F)cc1,-3.42
22,N/C(=N\OC(=O)COc1ccc(Cl)cc1Cl)c1cccnc1,40.6
23,CC(=O)NC(CC(=O)NC1CCCc2ccccc21)c1ccccc1 (stereo not drawn),8.17

row,SMILES,"hERG current change (%, negative = inhibition) at 10uM [%]"
1,O=C(COC(=O)c1cnccn1)Nc1ccc(Cl)cn1,12.1
2,Cn1c(CCC(=O)Nc2ccc(N3CCOCC3)cc2)nc(=O)c2ccccc21,10.2
3,CNc1nc(-c2ccc(S(=O)(=O)N3CCCCC3)cc2)cs1,10.1
4,CCN(Cc1ccc(OC)c(COC)c1)CC1CCCN(CCc2cccc(OC)c2)C1 (stereo not drawn),-26.3
5,O=C(NCCCN1CCOCC1)c1ccc2c(c1)N(Cc1ccc(Cl)cc1)C(=O)c1ccccc1S2=O (stereo not drawn),-42.1
6,COc1cccc(OCc2cc(C(=O)NCc3ccccn3)no2)c1,1.59
7,COc1ccc(N2CSC3=C(C#N)C(c4ccc(OC)c(OC)c4)CC(=O)N3C2)c(OC)c1 (stereo not drawn),-47.5
8,COc1cc(C(c2c(O)nc(SC)[nH]c2=O)c2c(O)nc(SC)[nH]c2=O)cc(OC)c1OC,13.8
9,COc1ccc(NS(=O)(=O)c2cc(NC(=O)c3ccc(C)s3)ccc2N2CCOCC2)cc1,-14.1
10,CC(=O)Nc1ccc2c(c1)nc1n2CCSC1,11.5
11,COCCN1CC(=O)N2C(c3cccc(OC)c3)c3[nH]c4ccccc4c3C[C@H]2C1=O (stereo partly drawn),-38.6
12,Cc1ccc(C2CC(=O)NC(SCC(=O)Nc3nccs3)=C2C#N)cc1 (stereo not drawn),4.55
13,O=C(c1ccc(Br)o1)N1CCN(C23CC4CC(CC(C4)C2)C3)CC1,-17.6
14,O=C(O)c1cccc(NC(=O)c2cc(NC(=O)c3ccccc3)cc(NC(=O)c3ccccc3)c2)c1,16.1
15,CCOCCn1c(=O)c2c(nc3n2CCN3c2ccc(CC)cc2)n(C)c1=O,6.46
16,CCOc1cc(C(=O)NCCOC)cc(OCC)c1OCC,10.6
17,CCCCCOC(=O)c1ccc(OC(=O)c2cncc(Br)c2)cc1,0.0483
18,Nc1nnc(SCc2ccccc2F)n1-c1ccccc1,15.9
19,COc1ccc(C2=NC(c3ccccc3)CO2)cc1 (stereo not drawn),-2.03
20,CCCSc1nc(N2CCOCC2)c2c(c1C#N)CC(C)(C)SC2,-21.4
21,C=CCOc1ccc(CN(C)c2ccc(S(=O)(=O)N3CCN(C)CC3)cc2[N+](=O)[O-])cc1,6.82
22,Cc1ccc(S(=O)(=O)/N=C/N(C)C)cc1,0.768
23,COc1cc(-n2c(=O)c3ccccc3n(Cc3cccc(F)c3)c2=O)cc(OC)c1OC,8.36

row,SMILES,"hERG current change (%, negative = inhibition) at 10uM [%]"
1,COc1ccc(/C(C)=N/NC(=O)CNC(=O)C2COc3ccccc3O2)c(OC)c1 (stereo not drawn),5.46
2,CC1CCN(c2ccc3nnc(CCC(=O)N4CCCCC4)n3n2)CC1,-3.14
3,O=C(Nc1cc(S(=O)(=O)N2CCOCC2)ccc1N1CCOCC1)c1cccs1,-27.1
4,O=C(O)C(Sc1ccncn1)c1ccccc1 (stereo not drawn),10.1
5,CC(NC(=O)NCC1CCCO1)(C(F)(F)F)C(F)(F)F (stereo not drawn),0.71
6,O=C(NCCCO)c1ccc2[nH]c3c(c2c1)CCCC3,8.79
7,COC(=O)c1ccc(Nc2nc(N3CCOCC3)nc(N3CCOCC3)n2)cc1.Cl,-1.25
8,COc1ccc(Cc2nnc(Nc3ccc4c(c3)OCCO4)[nH]c2=O)cc1,16.9
9,COc1ccccc1N1CCN(C(=O)CCc2ccccc2)CC1,-11.4
10,On1c(-c2ccc(Cl)cc2Cl)nc2ncccc21,8.16
11,COc1ccc(NC(=O)CN(C)C(=O)c2cc3c(s2)CCC3)cc1,-4.78
12,C/C(=N\NC(=O)c1[nH]c2c([N+](=O)[O-])cc(C)cc2c1-c1ccccc1)c1cccnc1,6.67
13,CN(C)CCOc1cc(Cl)cc(Cl)c1,7.27
14,C=CCOc1cc(C)nc(-c2ccccc2O)n1,-1.94
15,CC1CCN(Cc2nc(-c3ccc(Cl)cc3)no2)CC1,8.57
16,CC(C)CCNC(=O)CN(CC1CCCO1)C(=O)CCC(=O)Nc1ccccn1 (stereo not drawn),-0.75
17,Cn1nc(-c2ccc(Cl)cc2)nc2c(=O)n(C)c(=O)nc1-2,-38.8
18,O=C(NCc1ccc2c(c1)OCO2)c1cccnc1,1.95
19,C/C(CC(=O)Nc1ccc(N(C)C)cc1)=N\NC(=O)c1ccccc1O,15.5
20,CC(CN1CCCCC1)OC(=O)/C=C/c1ccccc1.Cl (stereo not drawn),-71
21,CCOC(=O)Cc1csc(NC(=O)c2ccc(N3CCOCC3)cc2[N+](=O)[O-])n1,-36.5
22,O=C(O)C1=CC[C@@H](c2ccc(Cl)cc2)N(S(=O)(=O)c2ccc(Cl)cc2)[C@H]1c1ccc(F)cc1,4.97
23,Cc1cc(C)cc(C(=O)N2CCN(c3ccccn3)CC2)c1,-11.4

row,SMILES,"hERG current change (%, negative = inhibition) at 10uM [%]"
1,Cc1csc(SCC(=O)NC(=O)C2CCCCC2)n1,29.5
2,Cc1ccc2c(c1)N(C)/C(=C/c1cccc[n+]1C)S2.[I-],-47.5
3,CCn1c(COc2ccccc2C)nnc1SCc1nc2ccccc2c(=O)[nH]1,24
4,C=CCOc1ccccc1CN1CCC(Oc2cc(C(=O)NC3CC3)ccc2OC)CC1,-72.2
5,CC(C)c1ccc(/C=C/C(=O)NCCC2=CCCCC2)cc1,-9.54
6,CC(C)Cn1c(=O)c(-[n+]2ccccc2)c([O-])c2ccccc21,-9.67
7,OC(CN1C2=NCCN2c2ccccc21)c1ccc(Br)cc1 (stereo not drawn),-71
8,COc1ccc(CN(CC2CCC(C(=O)O)CC2)C(=S)Nc2ccccc2OC)cc1 (stereo not drawn),9.91
9,CCN(CC)c1ncnc2c1[nH]c1ccccc12,-21.8
10,COc1cccc(/C(N)=N/OC(=O)Cc2ccccc2[N+](=O)[O-])c1,4.95
11,Cc1ccc(C(=O)OCC(=O)Nc2ccc3c(c2)OCO3)c(O)c1,-0.398
12,Cn1c(=O)cc(N)n(-c2ccccc2)c1=O,16.3
13,COc1ccccc1/C=C/C=N/n1c(-c2cc(C)[nH]n2)n[nH]c1=S,22.9
14,COc1ccccc1N1CCN(C(=O)C(=O)c2cn(CC(=O)N3CCCC3)c3ccccc23)CC1,4.53
15,CN(C(=O)CSc1nnc(NC2CCCCC2)s1)C1CCS(=O)(=O)C1 (stereo not drawn),8.41
16,CCn1c(-c2ccc(N)cc2)nc2ccccc21,4.21
17,CCn1cc(C(=O)OCC(=O)Nc2cccc(C)c2)c(=O)c2ccc(C)nc21,19.7
18,COc1cccc(/C=N/NC(=O)C(C)Sc2ccccc2)c1 (stereo not drawn),1.85
19,O=C1N/C(=C/c2cccn2-c2ccccc2)C(=O)N1Cc1ccccc1F,8.06
20,CC(=O)NS(=O)(=O)c1ccc(NC(=S)NC(=O)c2ccco2)cc1,2.54
21,Cc1ccc(/C=N/n2c(C)cc(C)c(C#N)c2=O)o1,18.6
